The list shows a part of the results.
Legend:
HSkMC = human skeletal muscle cells; assay: cytotoxicity call (relative viability < 0.9); details: 10 µM
HepG2 = assay: cytotoxicity call (relative viability < 0.9); details: 10 µM
S. aureus RN4220 = assay: growth inhibition call (relative growth <= 0.2); details: 50 µM

SMILES	cytotoxicity call (HSkMC)	cytotoxicity call (HepG2)	growth inhibition call (S. aureus RN4220)
O=C(C1=C[C@@H](c2ccc(C(F)(F)F)cc2)C[C@@H](OCc2ccc(CO)cc2)O1)N1CCN(Cc2ccc3c(c2)OCO3)CC1	inactive	inactive	inactive
C[C@H](CO)N1C[C@H](C)[C@H](CN(C)Cc2ccncc2)Oc2ccc(NC(=O)c3ccncc3)cc2CC1=O	inactive	inactive	inactive
COc1ccc(NC(=O)N(C)C[C@@H]2Oc3ccc(NS(C)(=O)=O)cc3C(=O)N([C@@H](C)CO)C[C@@H]2C)cc1	inactive	inactive	inactive
C[C@H]1CN([C@@H](C)CO)S(=O)(=O)c2ccc(Br)cc2O[C@H]1CN(C)C(=O)Cc1ccncc1	inactive	inactive	inactive
C[C@@H]1CN([C@@H](C)CO)S(=O)(=O)c2ccc(Br)cc2O[C@H]1CN(C)C(=O)c1cnccn1	inactive	inactive	inactive
CC(C)(C)OC(=O)NCc1nnc(N)[nH]1	inactive	inactive	inactive
COc1ccc(CN(C)C[C@H]2Oc3ccc(NS(=O)(=O)c4c(C)noc4C)cc3CC(=O)N([C@@H](C)CO)C[C@@H]2C)cc1	inactive	inactive	inactive
C[C@H](CO)N1C[C@H](C)[C@H](CN(C)S(=O)(=O)c2cccs2)Oc2ccc(NC(=O)C3CC3)cc2CC1=O	inactive	inactive	inactive
C[C@H]1CN([C@@H](C)CO)C(=O)Cc2cc(NC(=O)Nc3ccc(F)cc3)ccc2O[C@@H]1CN(C)Cc1ccc(-c2ccccc2)cc1	inactive	active	inactive
C[C@@H]1CN([C@H](C)CO)C(=O)c2cc(C#Cc3ccncc3)cnc2O[C@H]1CN(C)C(=O)c1ccccc1F	inactive	inactive	inactive
O=C(C[C@@H]1C[C@H]2c3cc(NC(=O)C4CCOCC4)ccc3O[C@H]2[C@@H](CO)O1)NCc1cc(F)ccc1F	inactive	inactive	inactive
Cc1ccc(S(=O)(=O)N(C)C[C@@H]2Oc3ccc(NC(=O)c4ccncc4)cc3C(=O)N([C@H](C)CO)C[C@H]2C)cc1	inactive	inactive	inactive
C[C@@H]1CN([C@H](C)CO)C(=O)c2cccc(NC(=O)C3CC3)c2O[C@H]1CN(C)Cc1ccc(-c2ccccc2)cc1	inactive	inactive	inactive
Cc1noc(C)c1S(=O)(=O)Nc1ccc2c(c1)CC(=O)N([C@H](C)CO)C[C@@H](C)[C@H](CN(C)S(=O)(=O)c1cccs1)O2	inactive	inactive	inactive
COc1ccc(CN(C)C[C@H]2Oc3ccc(NS(C)(=O)=O)cc3C(=O)N([C@H](C)CO)C[C@@H]2C)cc1	inactive	inactive	inactive
C[C@H]1CN([C@@H](C)CO)C(=O)CCCn2nncc2CO[C@@H]1CN(C)C(=O)Nc1ccc(C(F)(F)F)cc1	inactive	inactive	active
C[C@@H]1CN([C@H](C)CO)C(=O)c2cc(NS(=O)(=O)c3cn(C)cn3)ccc2O[C@@H](C)CCCCO[C@H]1CN(C)S(=O)(=O)c1cccs1	inactive	inactive	inactive
C[C@@H]1CN([C@@H](C)CO)C(=O)c2cc(NS(C)(=O)=O)ccc2O[C@@H]1CN(C)C(=O)NC1CCCCC1	inactive	inactive	inactive
C[C@@H]1CN([C@H](C)CO)C(=O)Cc2cc(NS(C)(=O)=O)ccc2O[C@H]1CN(C)S(=O)(=O)c1cccs1	inactive	inactive	inactive
O=C(O)c1ccc[n+]([O-])c1	inactive	inactive	inactive
O=C(C[C@H]1CC[C@H]2[C@@H](COC[C@@H](O)CN2C(=O)C2CC2)O1)NCc1ccncc1	inactive	inactive	inactive
C[C@H]1CN([C@@H](C)CO)C(=O)c2cc(NC(=O)Cn3cnnn3)ccc2O[C@H]1CN(C)Cc1ccncc1	inactive	inactive	inactive
CCCn1c(N)nc2c1c(=O)n(C)c(=O)n2C	inactive	inactive	inactive
Cc1ccc(S(=O)(=O)N(C)C[C@@H]2Oc3ccc(NC(=O)Cn4cnnn4)cc3C(=O)N([C@@H](C)CO)C[C@H]2C)cc1	inactive	inactive	inactive
C[C@H](CO)N1C[C@H](C)[C@H](CN(C)C(=O)Nc2ccc(F)cc2)OCCCC[C@H](C)Oc2ccc(NC(=O)NC3CCCCC3)cc2C1=O	inactive	inactive	inactive
COCC(=O)N(C)C[C@H]1Oc2cc(C#CCC3CCCC3)ccc2S(=O)(=O)N([C@@H](C)CO)C[C@H]1C	inactive	inactive	inactive

Source: the antibiotic and cytotoxicity screens of Wong et al. (2023)
